# Reference: the antibiotic and cytotoxicity screens of Wong et al. (2023)
# Some of the results follow.
# Assays:
# HSkMC = human skeletal muscle cells; experiment: cytotoxicity call (relative viability < 0.9); conditions: 10 µM
# HepG2 = experiment: cytotoxicity call (relative viability < 0.9); conditions: 10 µM
# S. aureus RN4220 = experiment: growth inhibition call (relative growth <= 0.2); conditions: 50 µM
Structure (SMILES),cytotoxicity call (HSkMC),cytotoxicity call (HepG2),growth inhibition call (S. aureus RN4220)
COc1ccc(S(=O)(=O)Nc2ccc3c(c2)C(=O)N([C@H](C)CO)C[C@H](C)[C@H](CN(C)S(=O)(=O)c2ccc(F)cc2)O3)cc1,inactive,inactive,inactive
COc1ccc2c3c([nH]c2c1)[C@H](CO)N(C[C@]13CCN(CC1)C(=O)Nc1c(noc1C)C)C(=O)Nc1ccc(cc1)F,inactive,inactive,inactive
C[C@@H]1CN([C@@H](C)CO)C(=O)c2ccccc2-c2ccccc2CO[C@@H]1CN(C)C(=O)Nc1cccc(F)c1,inactive,inactive,inactive
O=S1(=O)CCN(CCc2ccccc2)CC1,inactive,inactive,inactive
C[C@@H]1CN([C@@H](C)CO)C(=O)c2cc(NC(=O)Nc3ccccc3)ccc2O[C@H]1CN(C)Cc1ccc(Oc2ccccc2)cc1,inactive,active,inactive
Cc1noc(C)c1NC(=O)Nc1ccc2c(c1)C(=O)N([C@H](C)CO)C[C@H](C)[C@@H](CN(C)Cc1ccc(Cl)c(Cl)c1)O2,inactive,inactive,inactive
C[C@@H]1CN([C@@H](C)CO)C(=O)c2cc(NC(=O)Nc3cccc4ccccc34)ccc2O[C@@H](C)CCCCO[C@H]1CN(C)S(=O)(=O)c1cccs1,inactive,inactive,inactive
Cc1ccc(S(=O)(=O)Nc2ccc3c(c2)C(=O)N([C@@H](C)CO)C[C@H](C)[C@H](CN(C)C(=O)NC(C)C)O3)cc1,inactive,inactive,inactive
O=C(CN1CCOCC1)NCC[C@H]1CC[C@H](NC(=O)c2ccccc2F)[C@H](CO)O1,inactive,inactive,inactive
O=C(O)c1ccc(C(=O)O)nc1,inactive,inactive,inactive
C[C@@H]1CCCCO[C@@H](CN(C)C(=O)CCCN(C)C)[C@H](C)CN([C@@H](C)CO)C(=O)c2cc(NS(=O)(=O)c3cn(C)cn3)ccc2O1,inactive,inactive,inactive
C[C@@H]1CN([C@@H](C)CO)C(=O)c2cc(NC(=O)Nc3cccc4ccccc34)ccc2O[C@@H](C)CCCCO[C@H]1CN(C)C(=O)Cc1ccccc1,inactive,inactive,inactive
O=C(O)Cc1cccc(OCCCN(Cc2cccc(C(F)(F)F)c2Cl)CC(c2ccccc2)c2ccccc2)c1,inactive,inactive,inactive
C[C@@H]1CN([C@H](C)CO)C(=O)c2cccc(NC(=O)c3cnccn3)c2O[C@@H]1CN(C)Cc1ccc(C(=O)O)cc1,inactive,inactive,inactive
Cc1noc(C)c1NC(=O)Nc1ccc2c(c1)C(=O)N([C@H](C)CO)C[C@@H](C)[C@H](CN(C)S(=O)(=O)c1ccc(Cl)cc1)OCCCC[C@@H](C)O2,inactive,inactive,inactive
C[C@@H]1CCCCO[C@@H](CN(C)C(=O)Nc2cccc3ccccc23)[C@H](C)CN([C@H](C)CO)C(=O)c2cc(NS(=O)(=O)c3cccs3)ccc2O1,inactive,inactive,inactive
Cc1ccc(S(=O)(=O)N(C)C[C@@H]2OCCCC[C@H](C)Oc3ccc(NC(=O)Nc4cccc5ccccc45)cc3C(=O)N([C@@H](C)CO)C[C@H]2C)cc1,inactive,inactive,inactive
OCC(O)CN1CCN(c2ccccc2)CC1 (stereo not drawn),inactive,inactive,inactive
Nc1ncnc2c1ncn2C1OC(COP(=O)(O)O)C(O)C1O (stereo not drawn),inactive,inactive,inactive
C[C@@H]1CN([C@@H](C)CO)C(=O)c2cc(NC(=O)Cn3cnnn3)ccc2O[C@@H]1CN(C)Cc1ccc(C(=O)Nc2ccccc2N)cc1,inactive,inactive,inactive
Cc1ccc(S(=O)(=O)N(C)C[C@H]2Oc3ccc(NC(=O)c4ccncc4)cc3C(=O)N([C@@H](C)CO)C[C@@H]2C)cc1,inactive,inactive,inactive
Cc1cn([C@H]2C=C[C@@H](CO)O2)c(=O)[nH]c1=O,inactive,inactive,inactive
C[C@@H]1CCCCO[C@@H](CN(C)Cc2ccc(C(=O)O)cc2)[C@@H](C)CN([C@H](C)CO)C(=O)c2cc(NC(=O)Cc3ccccc3)ccc2O1,inactive,inactive,inactive
C=CC(=O)NC(C)(C)CCN1CCOCC1,inactive,inactive,inactive
COc1ccc(S(=O)(=O)Nc2ccc3c(c2)C(=O)N([C@@H](C)CO)C[C@@H](C)[C@@H](CN(C)C(=O)Nc2c(C)noc2C)O3)cc1,inactive,inactive,inactive
C[C@H](CO)N1C[C@H](C)[C@H](CN(C)Cc2ccc(C(=O)Nc3ccccc3N)cc2)Oc2c(NC(=O)Nc3cccc4ccccc34)cccc2C1=O,inactive,active,inactive
